According to the supplement of paper PMC10126150:
Sequences with one replicate were seen in a single cluster, so their values are uncertain.

System: ATP
Assay: switch fluorescence ratio, 500 uM ATP over buffer (Cy3 cluster intensity, sum of 5 cycles each) (fold (ratio)); higher = stronger signal-on switching upon ATP binding; sequences stand for … in TCGTCGGCAGCGTCAGATGTGTATAAGAGACAGTTTTTTTTTTTTTTTTTTTTTTTTT…TC
Conditions: aptamer strand: ATP DNA aptamer (quencher-CACCTGGGGGAGTATTGCGGAGGAAGG + anchor), 100 nM annealed; ATP concentration: 500 uM; one replicate
Procedure, shortened: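 The fluorescence ratio divides summed target-cycle Cy3 intensity by summed buffer-cycle Cy3 intensity for each cluster and is averaged per switch-domain sequence. Cy3-labelled switching-strand clusters on a modified Illumina MiSeq flow-cell were annealed to 100 nM quencher-labelled ATP aptamer, then imaged in selection buffer and again after 15 min with 500 uM ATP at 22 °C. Five such cycles were run, with NaOH stripping and re-annealing between them, and clusters outside 100-1000 RFU were excluded.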
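Note: ATP exposure 15 min at 22 °C before imaging.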

| Sequence | switch fluorescence ratio |
| --- | --- |
| CAATTAATAA | 0.98 |
| TAACCGGGTG | 3.56 |
| ATGTATGCGT | 1 |
| CCGTTTCCCG | 1 |
| GAGATCCCAC | 1 |
| TAAGTTTGAA | 0.976 |
| ACATGGTTGG | 0.95 |
| TGGGATAACA | 0.996 |
| TAGCTCGACA | 0.973 |
| TAGGGACGAA | 1.02 |
| CACAAACGGT | 1.35 |
| CGTGTTGATC | 1.01 |
| GGTTGTGTGA | 0.973 |
| TTCTTTCTGC | 0.951 |
| CCGGGTTGAA | 1.03 |
| AGGGTTGCGG | 0.978 |
| TTGTTGATG | 0.963 |
| AAGTACGTAT | 1.12 |
| GGACGAAAG | 0.96 |
| AGGCGAGGAC | 1.03 |
| AATAAACTAC | 1.05 |
| TATACTTTGG | 1 |
| AAGTCAGATG | 0.949 |

| Sequence | switch fluorescence ratio |
| --- | --- |
| CTGATTTCTA | 1.02 |
| TGGCGGCGT | 1.01 |
| GACACACCTG | 1.14 |
| TAATGGGTT | 1.07 |
| GACCGAGGAT | 1.01 |
| GGATTTAAAC | 0.978 |
| AGAAGCCACT | 0.974 |
| AAGTCCGGCG | 1.02 |
| ATTAACTTCA | 1.04 |
| CTGGGCAAGG | 1.18 |
| TGCGAGATAT | 1.03 |
| TTATGCCGC | 0.969 |
| GATCTTATGT | 0.978 |
| TTAAACACGA | 1.02 |
| ATTGACCGTC | 1.03 |
| ATAAAATTCA | 1.01 |
| GAATGTGTCG | 1.01 |
| AAGCAGGTAG | 1.02 |
| AAGCAGGTA | 1.01 |
| TTTTAGCCCT | 1.01 |
| GCATACATTG | 1.03 |
| TATTCTCCTT | 1.04 |
| AGTGAGTGGA | 1 |

| Sequence | switch fluorescence ratio |
| --- | --- |
| TCTGGAGCTG | 1.43 |
| ATTGAGTCA | 0.995 |
| TAAGTCTTGG | 0.998 |
| GTCCTCATTT | 1.04 |
| ACAGGAAGCC | 0.986 |
| TCATCATTGA | 1.03 |
| TCCTCGAGCA | 4.31 |
| CAGAATCACA | 1.01 |
| TAAGATCCAG | 1.01 |
| GGTCGATG | 0.977 |
| CTAGCTCCGC | 1.17 |
| TCTGTTTATT | 1.03 |
| CATATATGCA | 0.985 |
| GAAAGCGCCG | 0.999 |
| GATAAACAAC | 1.01 |
| CAGACGGGAT | 1.88 |
| GTTTTGGCTC | 0.982 |
| GTTATATTAA | 0.943 |
| GATTGAGGTT | 0.976 |
| TACAAACACG | 1.21 |
| TTAGATAATA | 1.01 |
| GTTTCGGAGC | 1.2 |
| GACCGATTTC | 1.05 |

| Sequence | switch fluorescence ratio |
| --- | --- |
| GGAAGCGGCT | 1.05 |
| GCTGACATTA | 1.03 |
| GCCATACCGG | 1.02 |
| CGCCCCATGG | 1.73 |
| CGACGTGCTA | 1.21 |
| TCACCGTAGA | 1.13 |
| CAGTGTGATC | 1.05 |
| TACGGTTTAA | 1.04 |
| TACTCGTCAA | 1.89 |
| AGAACGTATC | 1.09 |
| CTTCAGGGA | 1.02 |
| GTATTCCGGT | 1.02 |
| TTTGACCTGC | 1.05 |
| GGAAGCCATA | 1.03 |
| CTATGGGAT | 1.05 |
| ACCGATAAGC | 1.14 |
| CTTTCCGCCC | 1.13 |
| TAAATTTAAA | 0.96 |
| GTGCATGAGC | 1.04 |
| CTAGCCCTGA | 0.96 |
| ATCAAACTGT | 1.06 |
| AGATGTTGCA | 1 |
| GATGGTCAGC | 0.981 |

| Sequence | switch fluorescence ratio |
| --- | --- |
| TTGAGAATTA | 0.976 |
| GAACGCAAAA | 2.72 |
| TTAACACCTT | 1 |
| CACAATTTTA | 0.982 |
| CTTGTAATAT | 1.04 |
| AGAATTATAG | 1 |
| GTGGGCCCCC | 1.09 |
| ATCGGACTTA | 1.08 |
| TTTTAATACA | 0.981 |
| TTAGATATGA | 0.998 |
| GCAGCGGTGC | 1.17 |
| GCCCAAATAT | 0.999 |
| TCCGGCGAGA | 1.43 |
| CTAAATCGGA | 0.975 |
| CTGATTAGCT | 1.01 |
| ATACTATTTG | 1 |
| TGAATTCCTA | 0.973 |
| AATCAATCCG | 0.997 |
| CACGTGGAAA | 1 |
| TGTGTTTATC | 1.03 |
| GCATATACTG | 2.17 |
| AGGACGGCTT | 1.05 |
| TATACAGTAG | 1.03 |

| Sequence | switch fluorescence ratio |
| --- | --- |
| CAATATGGTG | 1.03 |
| AATAGAAAAC | 1.01 |
| TCAGCAT | 0.943 |
| GACCGAAATT | 0.988 |
| CCACGTGTCC | 1 |
| CCACAGTCCG | 1.25 |
| TACAACGATT | 0.998 |
| TGGCTGAACT | 0.97 |
| TTAAGTATAG | 1.04 |
| TTGCTTTGT | 0.976 |
| CAGCGCTATT | 0.983 |
| GACTTTATGT | 0.994 |
| AGGTGATTGT | 1.02 |
| GCGGTCTAAT | 1.06 |
| TTTGGTGCTC | 0.987 |
| TTACTCAGTA | 1.03 |
| GCTGTCGGGT | 1 |
| GATAGATACG | 1 |
| CTAAGCACGT | 1.14 |
| TTCGCGGAAC | 2.07 |
| AGTCTCCCAC | 1.1 |
| TTATACTAAT | 0.966 |
| ACATTGGTGC | 1.12 |

| Sequence | switch fluorescence ratio |
| --- | --- |
| CAGCTGACCC | 0.99 |
| CTGCCGCAGA | 2.82 |
| AATCTATTGA | 1 |
| CCTGGTTTAT | 1.01 |
| AACGTCCCAA | 1.71 |
| GTTGATGTGT | 0.984 |
| CATGTCCATA | 0.994 |
| GGATCGAAAT | 0.98 |
| GCCGACTGC | 1.06 |
| TCTCCTCTTC | 1.14 |
| AGAGGCGGGG | 1.02 |
| AACATTTGAA | 0.997 |
| ATAATAAATT | 1.01 |
| GTAAGATCTG | 1.01 |
| AACCGTGAGG | 0.957 |
| GCGGGGTGCT | 0.964 |
| ACGACAGAGT | 1.05 |
| TGAGCGTCAG | 0.987 |
| CCTTGAGGTA | 1.02 |
